# Data taken from the supplement of paper PMC8728848.
# Some of the results follow.
# B1: AFL5 (Aspergillus fumigatus), Q4WB00 (protein)
# chain: MDNFMEMTKKLGHQPELLRLRALDATYDDALEGKLVVAPLDMSEPGKKILDSGTADGTWLRNVRSKQSVPHDYYGSDVEGELFPKDPDGITYFAHSFKDPWPQQYLGFFDLVHIRGSLAGSAPEGPAPVIQNLTTLLKPGGWVQLMEMNAFSPPPNGPAMTDFAKMASEMFTGIGVGDFANNNKSMLEDAGLKNVQEKRVIVNLGKKAKPELHDQSIHGVTGPIVPLTSVARTVKSSFTGEQLDALPARVKEELETEGGQVEMIIAFGQKA
# Experiments:
# Assay in all cases: glycan array binding signal (z-score within array); higher = stronger binding
# Details in all cases: glycan notation: IUPAC condensed, linker removed
# [1] = biological target: Gal(b1-3)GlcNAc(b1-6)GalNAc
# Summary of the method: (§1)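 Arrays were curated from the Consortium for Functional Glycomics database, 3228 in total, and kept only where the protein sequence was available. Binding is expressed as a within-array Z-score. This score was averaged across arrays of the same protein sequence at different concentrations or buffers and across linkers, and negative values can be read as non-binding.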
# [2] = biological target: Gal(b1-3)GlcNAc(b1-6)[Gal(b1-3)]GalNAc
# Summary of the method: as §1
# Gal(b1-3)GlcNAc6S = biological target: Gal(b1-3)GlcNAc6S
# Summary of the method: as §1
# [3] = biological target: Gal(b1-3)[Fuc(a1-4)]GlcNAc
# Summary of the method: as §1
# [4] = biological target: Gal(b1-3)[Fuc(a1-4)]GlcNAc(b1-2)Man
# Summary of the method: as §1
# [5] = biological target: Gal(b1-3)[Fuc(a1-4)]GlcNAc(b1-2)Man(a1-3)[Gal(b1-3)[Fuc(a1-4)]GlcNAc(b1-2)Man(a1-6)]Man(b1-4)GlcNAc(b1-4)[Fuc(a1-6)]GlcNAc
# Summary of the method: as §1
# [6] = biological target: Gal(b1-3)[Fuc(a1-4)]GlcNAc(b1-3)Gal(b1-3)[Fuc(a1-4)]GlcNAc
# Summary of the method: as §1
# [7] = biological target: Gal(b1-3)[Fuc(a1-4)]GlcNAc(b1-3)Gal(b1-4)[Fuc(a1-3)]GlcNAc
# Summary of the method: as §1
# [8] = biological target: Gal(b1-3)[Fuc(a1-4)]GlcNAc(b1-6)GalNAc
# Summary of the method: as §1
# [9] = biological target: Gal(b1-3)[GlcNAc(b1-6)]GalNAc
# Summary of the method: as §1
# [10] = biological target: Gal(b1-3)[Neu5Ac(a2-6)]GalNAc
# Summary of the method: as §1
# [11] = biological target: Gal(b1-3)[Neu5Ac(a2-6)]GlcNAc(b1-4)Gal(b1-4)Glc
# Summary of the method: as §1
# [12] = biological target: Gal(b1-3)[Neu5Ac(b2-6)]GalNAc
# Summary of the method: as §1
# Gal(b1-4)Gal = biological target: Gal(b1-4)Gal
# Summary of the method: as §1
# [13] = biological target: Gal(b1-4)GalNAc(a1-3)[Fuc(a1-2)]Gal(b1-4)GlcNAc
# Summary of the method: as §1
# [14] = biological target: Gal(b1-4)GalNAc(b1-3)[Fuc(a1-2)]Gal(b1-4)GlcNAc
# Summary of the method: as §1
# Gal(b1-4)Glc = biological target: Gal(b1-4)Glc
# Summary of the method: as §1
# Gal(b1-4)Glc6S = biological target: Gal(b1-4)Glc6S
# Summary of the method: as §1
# Gal(b1-4)GlcNAc = biological target: Gal(b1-4)GlcNAc
# Summary of the method: as §1
# [15] = biological target: Gal(b1-4)GlcNAc(a1-6)Gal(b1-4)GlcNAc
# Summary of the method: as §1
# Gal(b1-4)GlcNAc(b1-2)Man = biological target: Gal(b1-4)GlcNAc(b1-2)Man
# Summary of the method: as §1
# [16] = biological target: Gal(b1-4)GlcNAc(b1-2)Man(a1-3)Man(b1-4)GlcNAc(b1-4)GlcNAc
# Summary of the method: as §1
# [17] = biological target: Gal(b1-4)GlcNAc(b1-2)Man(a1-3)[Gal(b1-4)GlcNAc(b1-2)Man(a1-6)]Man(b1-4)GlcNAc(b1-4)GlcNAc
# Summary of the method: as §1
# [18] = biological target: Gal(b1-4)GlcNAc(b1-2)Man(a1-3)[Gal(b1-4)GlcNAc(b1-2)Man(a1-6)]Man(b1-4)GlcNAc(b1-4)[Fuc(a1-6)]GlcNAc
# Summary of the method: as §1
# [19] = biological target: Gal(b1-4)GlcNAc(b1-2)Man(a1-3)[Gal(b1-4)GlcNAc(b1-2)Man(a1-6)][Gal(b1-4)GlcNAc(b1-4)]Man(b1-4)GlcNAc(b1-4)[Fuc(a1-6)]GlcNAc
# Summary of the method: as §1
# [20] = biological target: Gal(b1-4)GlcNAc(b1-2)Man(a1-3)[Gal(b1-4)GlcNAc(b1-2)Man(a1-6)][GlcNAc(b1-4)]Man(b1-4)GlcNAc(b1-4)[Fuc(a1-6)]GlcNAc
# Summary of the method: as §1
# [21] = biological target: Gal(b1-4)GlcNAc(b1-2)Man(a1-3)[GlcNAc(b1-2)Man(a1-6)]Man(b1-4)GlcNAc(b1-4)GlcNAc
# Summary of the method: as §1
# [22] = biological target: Gal(b1-4)GlcNAc(b1-2)Man(a1-3)[GlcNAc(b1-4)][Gal(b1-4)GlcNAc(b1-2)Man(a1-6)]Man(b1-4)GlcNAc(b1-4)GlcNAc
# Summary of the method: as §1
# [23] = biological target: Gal(b1-4)GlcNAc(b1-2)Man(a1-3)[Man(a1-6)]Man(b1-4)GlcNAc(b1-4)GlcNAc
# Summary of the method: as §1
# [24] = biological target: Gal(b1-4)GlcNAc(b1-2)Man(a1-6)Man(b1-4)GlcNAc(b1-4)GlcNAc
# Summary of the method: as §1
# [25] = biological target: Gal(b1-4)GlcNAc(b1-2)Man(a1-6)[GlcNAc(b1-2)Man(a1-3)]Man(b1-4)GlcNAc(b1-4)GlcNAc
# Summary of the method: as §1
# [26] = biological target: Gal(b1-4)GlcNAc(b1-2)Man(a1-6)[Man(a1-3)]Man(b1-4)GlcNAc(b1-4)GlcNAc
# Summary of the method: as §1
# [27] = biological target: Gal(b1-4)GlcNAc(b1-2)[Gal(b1-4)GlcNAc(b1-4)]Man(a1-3)[Gal(b1-4)GlcNAc(b1-2)Man(a1-6)]Man(b1-4)GlcNAc(b1-4)GlcNAc
# Summary of the method: as §1
# [28] = biological target: Gal(b1-4)GlcNAc(b1-2)[Gal(b1-4)GlcNAc(b1-4)]Man(a1-3)[Gal(b1-4)GlcNAc(b1-2)[Gal(b1-4)GlcNAc(b1-6)]Man(a1-6)]Man(b1-4)GlcNAc(b1-4)GlcNAc
# Summary of the method: as §1
# [29] = biological target: Gal(b1-4)GlcNAc(b1-2)[Gal(b1-4)GlcNAc(b1-4)]Man(a1-3)[GlcNAc(b1-4)][Gal(b1-4)GlcNAc(b1-2)Man(a1-6)]Man(b1-4)GlcNAc(b1-4)GlcNAc
# Summary of the method: as §1
# [30] = biological target: Gal(b1-4)GlcNAc(b1-2)[Gal(b1-4)GlcNAc(b1-4)]Man(a1-3)[GlcNAc(b1-4)][Gal(b1-4)GlcNAc(b1-2)[Gal(b1-4)GlcNAc(b1-6)]Man(a1-6)]Man(b1-4)GlcNAc(b1-4)GlcNAc
# Summary of the method: as §1
# [31] = biological target: Gal(b1-4)GlcNAc(b1-2)[Gal(b1-4)GlcNAc(b1-6)]Man(a1-6)[Gal(b1-4)GlcNAc(b1-2)Man(a1-3)]Man(b1-4)GlcNAc(b1-4)GlcNAc
# Summary of the method: as §1
binder,measurement,setting,value
B1,glycan array binding signal (z-score),[1],0.008
same,glycan array binding signal (z-score),[2],-0.782
same,glycan array binding signal (z-score),Gal(b1-3)GlcNAc6S,-0.19
same,glycan array binding signal (z-score),[3],-0.362
same,glycan array binding signal (z-score),[4],-0.142
same,glycan array binding signal (z-score),[5],-0.37
same,glycan array binding signal (z-score),[6],-0.726
same,glycan array binding signal (z-score),[7],-0.394
same,glycan array binding signal (z-score),[8],0.029
same,glycan array binding signal (z-score),[9],0.164
same,glycan array binding signal (z-score),[10],-0.564
same,glycan array binding signal (z-score),[11],-0.419
same,glycan array binding signal (z-score),[12],-0.429
same,glycan array binding signal (z-score),Gal(b1-4)Gal,-0.502
same,glycan array binding signal (z-score),[13],0.181
same,glycan array binding signal (z-score),[14],-0.527
same,glycan array binding signal (z-score),Gal(b1-4)Glc,-0.235
same,glycan array binding signal (z-score),Gal(b1-4)Glc6S,-0.068
same,glycan array binding signal (z-score),Gal(b1-4)GlcNAc,-0.261
same,glycan array binding signal (z-score),[15],-0.49
same,glycan array binding signal (z-score),Gal(b1-4)GlcNAc(b1-2)Man,0.065
same,glycan array binding signal (z-score),[16],-0.271
same,glycan array binding signal (z-score),[17],-0.034
same,glycan array binding signal (z-score),[18],0.004
same,glycan array binding signal (z-score),[19],-0.097
same,glycan array binding signal (z-score),[20],-0.411
same,glycan array binding signal (z-score),[21],-0.964
same,glycan array binding signal (z-score),[22],-0.705
same,glycan array binding signal (z-score),[23],0.106
same,glycan array binding signal (z-score),[24],-0.114
same,glycan array binding signal (z-score),[25],0
same,glycan array binding signal (z-score),[26],0.402
same,glycan array binding signal (z-score),[27],-0.297
same,glycan array binding signal (z-score),[28],-0.466
same,glycan array binding signal (z-score),[29],-0.134
same,glycan array binding signal (z-score),[30],-0.419
same,glycan array binding signal (z-score),[31],0.487
